Laboratory results: a collection of fitness landscapes (doi:10.1126/science.1257360)
Some of the results follow.

B1: PhoQ; a variant is named by its letters at X, in order, P23837 (parent)
chain: MKKLLRLFFPLSLRVRFLLATAAVVLVLSLAYGMVALIGYSVSFDKTTFRLLRGESNLFYTLAKWENNKLHVELPENIDKQSPTMTLIYDENGQLLWAQRDVPWLMKMIQPDWLKSNGFHEIEADVNDTSLLLSGDHSIQQQLQEVREDDDDAEMTHSVAVNVYPATSRMPKLTIVVVDTIPVELKSSYMVWSWFIYVLSANLLLVIPLLWVAAWWSLRPIEALAKEVRELEEHNRELLNPATTRELTSLVRNLNRLLKSERERYDKYRTTLTDLTHSLKTPLXXLQXXLRSLRSEKMSVSDAEPVMLEQISRISQQIGYYLHRASMRGGTLLSRELHPVAPLLDNLTSALNKVYQRKGVNISLDISPEISFVGEQNDFVEVMGNVLDNACKYCLEFVEISARQTDEHLYIVVEDDGPGIPLSKREVIFDRGQRVDTLRPGQGVGLAVAREITEQYEGKIVAGESMLGGARMEVIFGRQHSAPKDE

Variants of: B1
Assay: enrichment ratio after two sorts for PhoP signalling (ratio (wild type AVST 3.29)); higher = more functional
Conditions: with PhoP (E. coli)

First: MTLM
Second: RPAE
The enrichment ratio of the first is higher: 13.8 for the first, ≤ 0.25 for the second.

PWKN and EEMP cannot be ordered by enrichment ratio: ≤ 0.25 for the first, ≤ 0.25 for the second.

EKIW and MDQN cannot be ordered by enrichment ratio: ≤ 0.25 for the first, ≤ 0.25 for the second.

First: GELC
Second: WMFL
The enrichment ratio of the first is higher: 8.26 for the first, ≤ 0.25 for the second.

YHLG and MFPA cannot be ordered by enrichment ratio: ≤ 0.25 for the first, ≤ 0.25 for the second.

LRKE and FVAA cannot be ordered by enrichment ratio: ≤ 0.25 for the first, ≤ 0.25 for the second.

LWPN and RHRT cannot be ordered by enrichment ratio: ≤ 0.25 for the first, ≤ 0.25 for the second.

First: TGVQ
Second: DKAP
The enrichment ratio of the first is higher: 7.73 for the first, ≤ 0.25 for the second.

Compared with WGHI, MLCF is higher in enrichment ratio: ≤ 0.25 for the first, 1.33 for the second.

HEDF and YYIP cannot be ordered by enrichment ratio: ≤ 0.25 for the first, ≤ 0.25 for the second.

RGIR and NEDE cannot be ordered by enrichment ratio: ≤ 0.25 for the first, ≤ 0.25 for the second.

VRPP and FAPF cannot be ordered by enrichment ratio: ≤ 0.25 for the first, ≤ 0.25 for the second.

FYQK and PYKY cannot be ordered by enrichment ratio: ≤ 0.25 for the first, ≤ 0.25 for the second.

AFIT and FVTT cannot be ordered by enrichment ratio: ≤ 0.25 for the first, ≤ 0.25 for the second.

SHYK and NPDE cannot be ordered by enrichment ratio: ≤ 0.25 for the first, ≤ 0.25 for the second.

First: QAVH
Second: TEGM
The enrichment ratio of the first is lower: ≤ 0.25 for the first, 4.56 for the second.

PYYH and PVFW cannot be ordered by enrichment ratio: ≤ 0.25 for the first, ≤ 0.25 for the second.

HDMH and DPQR cannot be ordered by enrichment ratio: ≤ 0.25 for the first, ≤ 0.25 for the second.

Compared with RFMC, RRTA is lower in enrichment ratio: 1.4 for the first, ≤ 0.25 for the second.

Going from TGFT to TFLC, the enrichment ratio falls from 3.02 to 2.75.

YLPP and RLIG cannot be ordered by enrichment ratio: ≤ 0.25 for the first, ≤ 0.25 for the second.

LQWP and LHIS cannot be ordered by enrichment ratio: ≤ 0.25 for the first, ≤ 0.25 for the second.

RTDT and YQEF cannot be ordered by enrichment ratio: ≤ 0.25 for the first, ≤ 0.25 for the second.

FFRC and MDCW cannot be ordered by enrichment ratio: ≤ 0.25 for the first, ≤ 0.25 for the second.

Compared with LFQI, SNNV is higher in enrichment ratio: ≤ 0.25 for the first, 5.17 for the second.

AMQN and IVYD cannot be ordered by enrichment ratio: ≤ 0.25 for the first, ≤ 0.25 for the second.

First: TPLF
Second: YTMI
The enrichment ratio of the first is lower: ≤ 0.25 for the first, 6.21 for the second.

WPNM and KGYT cannot be ordered by enrichment ratio: ≤ 0.25 for the first, ≤ 0.25 for the second.

NLMP and QPSI cannot be ordered by enrichment ratio: ≤ 0.25 for the first, ≤ 0.25 for the second.

WGCS and WEYN cannot be ordered by enrichment ratio: ≤ 0.25 for the first, ≤ 0.25 for the second.

NEQA and PLIF cannot be ordered by enrichment ratio: ≤ 0.25 for the first, ≤ 0.25 for the second.

ECTW and MTKI cannot be ordered by enrichment ratio: ≤ 0.25 for the first, ≤ 0.25 for the second.

SRQQ and HNLM cannot be ordered by enrichment ratio: ≤ 0.25 for the first, ≤ 0.25 for the second.

SNER and WLRA cannot be ordered by enrichment ratio: ≤ 0.25 for the first, ≤ 0.25 for the second.

MHMG and YHKI cannot be ordered by enrichment ratio: ≤ 0.25 for the first, ≤ 0.25 for the second.

MVCP and PSLV cannot be ordered by enrichment ratio: ≤ 0.25 for the first, ≤ 0.25 for the second.

WDHC and DHKH cannot be ordered by enrichment ratio: ≤ 0.25 for the first, ≤ 0.25 for the second.

EDVR and EEMH cannot be ordered by enrichment ratio: ≤ 0.25 for the first, ≤ 0.25 for the second.

TCMW and DNRK cannot be ordered by enrichment ratio: ≤ 0.25 for the first, ≤ 0.25 for the second.

KHMQ and WNDN cannot be ordered by enrichment ratio: ≤ 0.25 for the first, ≤ 0.25 for the second.

DETV and KRTP cannot be ordered by enrichment ratio: ≤ 0.25 for the first, ≤ 0.25 for the second.

TNPS and AKVM cannot be ordered by enrichment ratio: ≤ 0.25 for the first, ≤ 0.25 for the second.

EECR and RWTH cannot be ordered by enrichment ratio: ≤ 0.25 for the first, ≤ 0.25 for the second.

QFGK and PVHL cannot be ordered by enrichment ratio: ≤ 0.25 for the first, ≤ 0.25 for the second.

Compared with DVKF, TKIY is higher in enrichment ratio: ≤ 0.25 for the first, 8.8 for the second.

First: HGFT
Second: SAVI
The enrichment ratio of the first is lower: ≤ 0.25 for the first, 3.04 for the second.

QSIV and SHDY cannot be ordered by enrichment ratio: ≤ 0.25 for the first, ≤ 0.25 for the second.

FATQ and NDHS cannot be ordered by enrichment ratio: ≤ 0.25 for the first, ≤ 0.25 for the second.

EQHD and RDDL cannot be ordered by enrichment ratio: ≤ 0.25 for the first, ≤ 0.25 for the second.

ITQK and MRDY cannot be ordered by enrichment ratio: ≤ 0.25 for the first, ≤ 0.25 for the second.

Going from QNYG to STTT, the enrichment ratio rises from ≤ 0.25 to 8.65.

DKMC and SPKV cannot be ordered by enrichment ratio: ≤ 0.25 for the first, ≤ 0.25 for the second.

First: NDTT
Second: SMGQ
The enrichment ratio of the first is lower: ≤ 0.25 for the first, 11.7 for the second.

DFNA and VWDR cannot be ordered by enrichment ratio: ≤ 0.25 for the first, ≤ 0.25 for the second.

EFFT and RYYH cannot be ordered by enrichment ratio: ≤ 0.25 for the first, ≤ 0.25 for the second.

IWKS and LHFW cannot be ordered by enrichment ratio: ≤ 0.25 for the first, ≤ 0.25 for the second.

First: RQCD
Second: TINI
The enrichment ratio of the first is lower: ≤ 0.25 for the first, 7.09 for the second.

WGKW and MMEH cannot be ordered by enrichment ratio: ≤ 0.25 for the first, ≤ 0.25 for the second.

LPRY and WQIK cannot be ordered by enrichment ratio: ≤ 0.25 for the first, ≤ 0.25 for the second.

VEYN and VQCY cannot be ordered by enrichment ratio: ≤ 0.25 for the first, ≤ 0.25 for the second.

Compared with IIWY, SEYT is higher in enrichment ratio: ≤ 0.25 for the first, 6.93 for the second.

WLWR and DVVY cannot be ordered by enrichment ratio: ≤ 0.25 for the first, ≤ 0.25 for the second.

YGVG and STRH cannot be ordered by enrichment ratio: ≤ 0.25 for the first, ≤ 0.25 for the second.

LKPV and LRLD cannot be ordered by enrichment ratio: ≤ 0.25 for the first, ≤ 0.25 for the second.

First: MCYR
Second: AITT
The enrichment ratio of the first is lower: ≤ 0.25 for the first, 3.34 for the second.

GRCP and RGVE cannot be ordered by enrichment ratio: ≤ 0.25 for the first, ≤ 0.25 for the second.

PTPV and SLYS cannot be ordered by enrichment ratio: ≤ 0.25 for the first, ≤ 0.25 for the second.

Compared with TRCM, PPPN is lower in enrichment ratio: 12.4 for the first, ≤ 0.25 for the second.

AEKF and HCHP cannot be ordered by enrichment ratio: ≤ 0.25 for the first, ≤ 0.25 for the second.

LLLC and QLVH cannot be ordered by enrichment ratio: ≤ 0.25 for the first, ≤ 0.25 for the second.

DKHN and EHVI cannot be ordered by enrichment ratio: ≤ 0.25 for the first, ≤ 0.25 for the second.

ITTM and HNAP cannot be ordered by enrichment ratio: ≤ 0.25 for the first, ≤ 0.25 for the second.

TPPQ and IVLE cannot be ordered by enrichment ratio: ≤ 0.25 for the first, ≤ 0.25 for the second.

GMVY and NADI cannot be ordered by enrichment ratio: ≤ 0.25 for the first, ≤ 0.25 for the second.

Going from LNSG to MNTL, the enrichment ratio rises from ≤ 0.25 to 3.28.

RTPN and EEWP cannot be ordered by enrichment ratio: ≤ 0.25 for the first, ≤ 0.25 for the second.

GLLY and VGDV cannot be ordered by enrichment ratio: ≤ 0.25 for the first, ≤ 0.25 for the second.

RTPH and LDGF cannot be ordered by enrichment ratio: ≤ 0.25 for the first, ≤ 0.25 for the second.

MMHP and EAPS cannot be ordered by enrichment ratio: ≤ 0.25 for the first, ≤ 0.25 for the second.

KFPI and HSQC cannot be ordered by enrichment ratio: ≤ 0.25 for the first, ≤ 0.25 for the second.

First: NLSM
Second: WAVW
The enrichment ratio of the first is higher: 0.258 for the first, ≤ 0.25 for the second.

First: TTHQ
Second: LCAM
The enrichment ratio of the first is higher: 26.2 for the first, ≤ 0.25 for the second.

AWLG and EMEK cannot be ordered by enrichment ratio: ≤ 0.25 for the first, ≤ 0.25 for the second.

EMEW and DIFC cannot be ordered by enrichment ratio: ≤ 0.25 for the first, ≤ 0.25 for the second.

First: WRVC
Second: TLCL
The enrichment ratio of the first is lower: ≤ 0.25 for the first, 0.547 for the second.

NMEK and VEGD cannot be ordered by enrichment ratio: ≤ 0.25 for the first, ≤ 0.25 for the second.

LSHQ and DHQR cannot be ordered by enrichment ratio: ≤ 0.25 for the first, ≤ 0.25 for the second.

Going from DDTM to FSTF, the enrichment ratio rises from ≤ 0.25 to 0.466.

SQWN and VLTS cannot be ordered by enrichment ratio: ≤ 0.25 for the first, ≤ 0.25 for the second.

PGIH and KLNQ cannot be ordered by enrichment ratio: ≤ 0.25 for the first, ≤ 0.25 for the second.

TYIL and WTLK cannot be ordered by enrichment ratio: ≤ 0.25 for the first, ≤ 0.25 for the second.

NIPW and YWEI cannot be ordered by enrichment ratio: ≤ 0.25 for the first, ≤ 0.25 for the second.

EESD and YSIN cannot be ordered by enrichment ratio: ≤ 0.25 for the first, ≤ 0.25 for the second.

DGPN and LSIC cannot be ordered by enrichment ratio: ≤ 0.25 for the first, ≤ 0.25 for the second.

Compared with IYSS, MIAM is higher in enrichment ratio: ≤ 0.25 for the first, 0.625 for the second.

PIGI and ETLN cannot be ordered by enrichment ratio: ≤ 0.25 for the first, ≤ 0.25 for the second.

VVGP and IGAA cannot be ordered by enrichment ratio: ≤ 0.25 for the first, ≤ 0.25 for the second.

In the case of EQNT, the enrichment ratio is reported as ≤ 0.25.
